# Experimental data as given in paper PMC12136788.
# Some of the results follow.
# T1: UNK ZnF1-6 (called full-length) (human, UniProt Q9C0B0 30-357)
# T1 sequence: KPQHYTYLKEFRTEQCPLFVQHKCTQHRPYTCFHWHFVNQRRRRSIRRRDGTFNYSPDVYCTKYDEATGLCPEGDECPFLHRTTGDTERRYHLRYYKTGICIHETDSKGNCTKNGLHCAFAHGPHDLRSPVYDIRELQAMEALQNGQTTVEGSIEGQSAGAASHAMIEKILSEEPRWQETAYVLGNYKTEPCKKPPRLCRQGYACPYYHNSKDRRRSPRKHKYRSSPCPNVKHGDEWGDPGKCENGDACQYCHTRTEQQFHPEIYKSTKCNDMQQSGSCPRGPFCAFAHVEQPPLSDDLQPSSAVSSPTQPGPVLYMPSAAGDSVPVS
# B1: chr1:184691659:184691688:-|3pUTR|ENSG00000116406|msi1_unk|FALSE|overlapping (ssRNA)
# RNA: GGGAGUUCUACAGUCCGACGAUCCUCCAACGUUGUAAUUACAACUCUACAUUCAUUUACUUACUUGACAUACUGCCACAAAGUAGUUUUUGAGUUCAUUAAAAAUUCCAAAGGCAUUAGUUGUUUUUUUUUUUUUUAGUGUUUCAACAGAGGAUUGAGCAUCA
# B2: ENSG00000114439:stop:overlap|stop_codon|ENSG00000114439|stop_codon|NA|stop_codon (ssRNA)
# RNA: GGGAGUUCUACAGUCCGACGAUCUUCAUUGUAAAACAUUGUGCUUUACCUACUACCCUAGCCUUGUCUUUACCGAGGGAUGCUAGUGAGUCCAAGUGGUGGAAAAUAUAGACUGCAAACAAGUGCUUGUUGCCCCACACGGCCCAACAGAGGAUUGAGCAUCA
# B3: chr7:82949737:82949846:-|CDS|ENSG00000186472|unk|total|mutant (ssRNA)
# RNA: GGGAGUUCUACAGUCCGACGAUCAAGUCCUCAAUAUCUGAGUGCCACAUCUCCACCCAAAGACAAGAAACGCCCAACACCUUCCGAGAUUGGUUAUUCAUCUCACCUCCGGGCAGAUUCCACAGUACAGCUGGCUCCUUCCCCCAACAGAGGAUUGAGCAUCA
# B4: chr22:19969400:19969501:+|3pUTR|ENSG00000093010|msi1|FALSE|unique (ssRNA)
# RNA: GGGAGUUCUACAGUCCGACGAUCUCCCCACUGGGCCUUGCUUACAGAAGAGGCAAUGGCUCAGACCAGCUCCCGCAUCCCUGUAGUUGCCUCCCUGGCCCAUGAGUGAGGAUGCAGUGCUGGUUUCUGCCCACCUACACCUAGCAACAGAGGAUUGAGCAUCA
# B5: chr3:167478683:167478996:-|three_prime_utr|ENSG00000174776|control|control|control (ssRNA)
# RNA: GGGAGUUCUACAGUCCGACGAUCCUGCCUUUUAUUUUAUUUUAUAUUUAAACUUCAGGAAGUUUUCUCUUCAUGGGAUAAUUUAGUACUGCUUUUAUCUAUCAUCUGUCAAUUUCUCUGUAUUCUUAAUAAAAUAAAUAUUGACAACAGAGGAUUGAGCAUCA
# B6: chr15:34852525:34852627:-|3pUTR|ENSG00000021776|unk|FALSE|unique (ssRNA)
# RNA: GGGAGUUCUACAGUCCGACGAUCCUAGCAUUUCCCAAACUUAUUAGAGCAUAAAACUUUGUUUUUGUUUUUUUUUAAUAAGAUAGGUAGCUAUUUCCUUAGAACACAGUUUGGGAAACUUUUUGUUCAUUUGUUUUAAUAAGACAACAGAGGAUUGAGCAUCA
# B7: chr1:9729969:9730061:-|3pUTR|ENSG00000171603|msi1_unk|total|mutant (ssRNA)
# RNA: GGGAGUUCUACAGUCCGACGAUCGUUUUUAUUUUUUCCAAACCCGUGCAUGUAUAAAUAAUGGCAGGAUGGGGGGUACUGUGCCGAUGAUUAACUGACUUUUUAAUAUUUUGUAAAUAAAUCGGAUUCCUUGUGUCCUUUGUGCAACAGAGGAUUGAGCAUCA
# B8: chr10:72012227:72012328:+|3pUTR|ENSG00000122863|msi1|total|mutant (ssRNA)
# RNA: GGGAGUUCUACAGUCCGACGAUCCAAUGGAAGGAGCUUCAGCAGGAGGUCCUUCCCAGAAGGUUGAUUCUUGGCCUGGGUGGCCGAGGAGAUAUCCUGACCCUAAAGUCUUCCAGCCCCGGGUCAUCCUCUCCUAUACCCGGGCAACAGAGGAUUGAGCAUCA
# B9: chr14:44928120:44928223:-|3pUTR|ENSG00000179454|unk|total|mutant (ssRNA)
# RNA: GGGAGUUCUACAGUCCGACGAUCCCGUACAGCAGGCCUCCCAGUGCUGAUGUAAAUAUUUGAGCAGUGUUCCGUACCAUUCUCCGUGCAUAUUAAUUUUUUUAUAUAUCCUUAUAAUUUCCGUUUUUUAAGAUCUUUGCUUUUCAACAGAGGAUUGAGCAUCA
# B10: chr13:51761002:51761103:+|3pUTR|ENSG00000139668|unk|FALSE|unique (ssRNA)
# RNA: GGGAGUUCUACAGUCCGACGAUCACGGCAAGAUUGUAAUCCUGCUGUAUUCCUCGCCCUCUGUAUUCUAUCCCUUUAAAAACUAGAUAUUUAAACAUUUUAUCCUAAUGUGUUUCAUCAGAACACUUUGCACACUUUCUUACUCAACAGAGGAUUGAGCAUCA
# B11: chr12:39618871:39619093:-|CDS|ENSG00000173208|unk|total|mutant (ssRNA)
# RNA: GGGAGUUCUACAGUCCGACGAUCUAUUAUGAUGUUCUCCCAAUCUGUGGCUCACUUGUAUUCCAAUCUGACCAAACCUAUUUCCGAUGUAAUGCUGACCUCCUAUACACUCAUUCAAACUGCUACAUCCAGAGGAGCAAGCCCCAACAGAGGAUUGAGCAUCA
# B12: ENSG00000107863:be:win_4251|CDS|ENSG00000107863|bound_else_gene|NA|bound_elsewhere_windowed (ssRNA)
# RNA: GGGAGUUCUACAGUCCGACGAUCUAGUCGCAAGAGGAAGAAGCCGAAAGAAAAAGCACAGCCUAGCAGCUCAGAAGAUGAACUGGACAAUGUAUUUUUUAAGAAAGAAAAUGUGGAACAGUGUCACAAUGAUACUAAAGAGGACAACAGAGGAUUGAGCAUCA
# B13: chr11:118396625:118396726:+|3pUTR|ENSG00000110344|msi1|FALSE|bound_elsewhere (ssRNA)
# RNA: GGGAGUUCUACAGUCCGACGAUCAACUUGACAAUGCUCCCCUGGCUUGCAGGAAAUUAUACUUAUUAUAGCAUCACCAAGUUUAGAAAUCAUCACUAAUUUUCACCCUCUGUUGUCUCUUCAUAUUCUUCUUCCUUUUCCUAACAACAGAGGAUUGAGCAUCA
# B14: chr1:228098371:228098472:+|3pUTR|ENSG00000143761|msi1_unk|FALSE|overlapping (ssRNA)
# RNA: GGGAGUUCUACAGUCCGACGAUCUGUGUUGAAAUCCAUUUUGGUGGUUGGUUUUUAACCCAAACUCAGUGCAUUUUUUAAAAUAGUUAAGAAUCCAAGUCGAGAACACUUGAACACACAGAAGGGAGACCCCGCCUAGCAUAGCAACAGAGGAUUGAGCAUCA
# B15: chr9:128810308:128810409:+|3pUTR|ENSG00000107021|unk|FALSE|unique (ssRNA)
# RNA: GGGAGUUCUACAGUCCGACGAUCUACAGAUUGAGCUGUAUGAAUUCAGCGGGUCUCACUCCAGAGGGUCAGAACGUUUGCUUUAGUUUUUUCAUCUGUUUUGUUCCUUGAGUCAGUGCUGUUGAUGACGAGUUGUCUUGAAUACAACAGAGGAUUGAGCAUCA
# B16: ENSG00000136451:be:win_251|CDS|ENSG00000136451|bound_else_gene|NA|bound_elsewhere_windowed (ssRNA)
# RNA: GGGAGUUCUACAGUCCGACGAUCGGGACAGCUAUCACCUGAGGCGCCACGAAUCCUGCCACACAGGGAUCAAGUUGGUGUCCCGGCCAAAGAAAACCCCCACCACGGUGGUUCCCCUUAUCUCUACCAUCGCUGGGGACAGCACAACAGAGGAUUGAGCAUCA
# B17: chr11:43342853:43342954:+|3pUTR|ENSG00000166181|msi1|total|mutant (ssRNA)
# RNA: GGGAGUUCUACAGUCCGACGAUCCCCGUUCUGCUGAUAAAGAUCAUCAGUUUUGAAAGGUUACUGAUUUUCCUCUUCCCUCUCCGUUUUUUACCCAAUAUAUGGAGAAGAGUAAUGGUCAAUCUUAACAUUUUGUUUUAAUUGCAACAGAGGAUUGAGCAUCA
# B18: chr19:38730201:38730298:+|3pUTR|ENSG00000130402|msi1_unk|FALSE|overlapping (ssRNA)
# RNA: GGGAGUUCUACAGUCCGACGAUCCAGAGAAUUACUAUUUACUUUAUUAACUUACGGAUUUAUUAUAUAAAUAUAUAUUCACCUAGCAACAUAUCUCUGCCGUCUCUCCUGCUCUCAUAAUGAAGACAUAGCCGAUUCUCUGCCCAACAGAGGAUUGAGCAUCA
# B19: chr6:105099394:105099495:-|3pUTR|ENSG00000112276|msi1|total|mutant (ssRNA)
# RNA: GGGAGUUCUACAGUCCGACGAUCUCCGUUGAAUGAAGCUCAUUGAUUGGCCAUGCUGGUCAUGUCUAUUUUGCUUCAUCCACCCGAACCAACUUUGAGUCAGUCUCCUGUUACGUUAAAUGGCUAAGAAAAGUUCCAAAUGAACAACAGAGGAUUGAGCAUCA
# B20: ENSG00000172071:stop:overlap|stop_codon|ENSG00000172071|stop_codon|NA|stop_codon (ssRNA)
# RNA: GGGAGUUCUACAGUCCGACGAUCCAUCGGGAACAAAACAUUCAAGACAGUCCAACAACUCCCAUAGCCCUUUGCCAAGCAAUUAGCCUUAAGUUGUGCUAGCAACCCUAAUAGGUGAUGCAGAUAAUAGCCUACUUCUUAGAACAACAGAGGAUUGAGCAUCA
# B21: chr1:223774945:223775046:+|3pUTR|ENSG00000162909|msi1|total|mutant (ssRNA)
# RNA: GGGAGUUCUACAGUCCGACGAUCAAAUACACUUUGUAUCUGGACCUCAAAAUUAUGGGAACAUUUACUUAAACGGAUGAUCACCGCUGAAAAUAAUGAUACUGUCAAUUUGAGACCGCAGAAGUUUCACACAUCAAAGUAAAACAACAGAGGAUUGAGCAUCA
# B22: ENSG00000107863:be:win_6451|3pUTR|ENSG00000107863|bound_else_gene|NA|bound_elsewhere_windowed (ssRNA)
# RNA: GGGAGUUCUACAGUCCGACGAUCGUAAAAUACGUAACUUAAAUGAACAUAUUAAAUGUGUAUCUUUUCUUCAGAUACCAGAUUUGAUAUAAUGUUGUAACAUAGGUGUGUAGAUAGUGGAUCCUGGAUGGAACUGGCUUCUUUCAACAGAGGAUUGAGCAUCA
# Target: T1, UNK ZnF1-6 (called full-length)
# Experiment: nsRBNS (natural sequence RNA bind-n-seq); RBNS binding buffer (assumed for nsRBNS): 25 mM Tris pH 7.5, 150 mM KCl, 3 mM MgCl2, 0.01% Triton X-100, 500 ug/ml BSA, 20 U/ml SUPERase-In, 4 C; UNK is unkempt and MSI1 is Musashi-1; names of the RNAs are library labels; protein concentration not given here; high values mean tight binding
row,Binder,binding signal
1,B1,8.44 enrichment R
2,B2,0.604 enrichment R
3,B3,0.726 enrichment R
4,B4,0.592 enrichment R
5,B5,2.14 enrichment R
6,B6,10.1 enrichment R
7,B7,1.54 enrichment R
8,B8,0.492 enrichment R
9,B9,7.31 enrichment R
10,B10,28.5 enrichment R
11,B11,0.656 enrichment R
12,B12,0.735 enrichment R
13,B13,4.24 enrichment R
14,B14,0.954 enrichment R
15,B15,0.809 enrichment R
16,B16,0.67 enrichment R
17,B17,0.437 enrichment R
18,B18,20.4 enrichment R
19,B19,0.186 enrichment R
20,B20,1.57 enrichment R
21,B21,0.325 enrichment R
22,B22,0.535 enrichment R
